Measured values published in the supplement of paper PMC8728848.
The list shows a part of the results.

Assays:
Assay in all cases: glycan array binding signal (z-score within array); higher = stronger binding
Details in all cases: glycan notation: IUPAC condensed, linker removed
[1] = molecular target: Neu5Ac(a2-6)Gal(b1-4)GlcNAc(b1-2)Man(a1-3)[GlcNAc(b1-4)][Neu5Ac(a2-6)Gal(b1-4)GlcNAc(b1-2)Man(a1-6)]Man(b1-4)GlcNAc(b1-4)GlcNAc
Procedure, shortened: (§1)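 Glycan array data were curated from 3228 arrays in the Consortium for Functional Glycomics database and kept only where the protein sequence was available. Glycan names were converted to IUPAC-condensed notation, and columns mapping to the same glycan were averaged. The binding signal is a within-array Z-score, averaged across arrays of the same protein sequence at different concentrations or buffers and across linkers. Negative Z-scores can be read as non-binding.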

[2] = molecular target: Neu5Ac(a2-6)Gal(b1-4)GlcNAc(b1-2)Man(a1-3)[Man(a1-6)]Man(b1-4)GlcNAc(b1-4)GlcNAc
Procedure, shortened: as §1

[3] = molecular target: Neu5Ac(a2-6)Gal(b1-4)GlcNAc(b1-2)Man(a1-3)[Neu5Ac(a2-3)Gal(b1-4)GlcNAc(b1-2)Man(a1-6)]Man(b1-4)GlcNAc(b1-4)GlcNAc
Procedure, shortened: as §1

[4] = molecular target: Neu5Ac(a2-6)Gal(b1-4)GlcNAc(b1-2)Man(a1-3)[Neu5Ac(a2-6)Gal(b1-4)GlcNAc(b1-2)Man(a1-6)]Man(b1-4)GlcNAc(b1-4)GlcNAc
Procedure, shortened: as §1

[5] = molecular target: Neu5Ac(a2-6)Gal(b1-4)GlcNAc(b1-2)Man(a1-3)[Neu5Ac(a2-6)Gal(b1-4)GlcNAc(b1-2)Man(a1-6)]Man(b1-4)GlcNAc(b1-4)[Fuc(a1-6)]GlcNAc
Procedure, shortened: as §1

[6] = molecular target: Neu5Ac(a2-6)Gal(b1-4)GlcNAc(b1-2)Man(a1-6)Man(b1-4)GlcNAc(b1-4)GlcNAc
Procedure, shortened: as §1

[7] = molecular target: Neu5Ac(a2-6)Gal(b1-4)GlcNAc(b1-2)Man(a1-6)[Gal(b1-4)GlcNAc(b1-2)Man(a1-3)]Man(b1-4)GlcNAc(b1-4)GlcNAc
Procedure, shortened: as §1

[8] = molecular target: Neu5Ac(a2-6)Gal(b1-4)GlcNAc(b1-2)Man(a1-6)[GlcNAc(b1-2)Man(a1-3)]Man(b1-4)GlcNAc(b1-4)GlcNAc
Procedure, shortened: as §1

[9] = molecular target: Neu5Ac(a2-6)Gal(b1-4)GlcNAc(b1-2)Man(a1-6)[Man(a1-3)]Man(b1-4)GlcNAc(b1-4)GlcNAc
Procedure, shortened: as §1

[10] = molecular target: Neu5Ac(a2-6)Gal(b1-4)GlcNAc(b1-2)[Neu5Ac(a2-6)Gal(b1-4)GlcNAc(b1-4)]Man(a1-3)[GlcNAc(b1-4)][Neu5Ac(a2-6)Gal(b1-4)GlcNAc(b1-2)[Neu5Ac(a2-6)Gal(b1-4)GlcNAc(b1-6)]Man(a1-6)]Man(b1-4)GlcNAc(b1-4)GlcNAc
Procedure, shortened: as §1

[11] = molecular target: Neu5Ac(a2-6)Gal(b1-4)GlcNAc(b1-2)[Neu5Ac(a2-6)Gal(b1-4)GlcNAc(b1-4)]Man(a1-3)[GlcNAc(b1-4)][Neu5Ac(a2-6)Gal(b1-4)GlcNAc(b1-4)Man(a1-6)]Man(b1-4)GlcNAc(b1-4)GlcNAc
Procedure, shortened: as §1

[12] = molecular target: Neu5Ac(a2-6)Gal(b1-4)GlcNAc(b1-2)[Neu5Ac(a2-6)Gal(b1-4)GlcNAc(b1-6)]Man(a1-6)[Neu5Ac(a2-6)Gal(b1-4)GlcNAc(b1-2)Man(a1-3)][GlcNAc(b1-4)]Man(b1-4)GlcNAc(b1-4)GlcNAc
Procedure, shortened: as §1

[13] = molecular target: Neu5Ac(a2-6)Gal(b1-4)GlcNAc(b1-3)Gal(b1-3)GlcNAc
Procedure, shortened: as §1

[14] = molecular target: Neu5Ac(a2-6)Gal(b1-4)GlcNAc(b1-3)Gal(b1-4)GlcNAc
Procedure, shortened: as §1

[15] = molecular target: Neu5Ac(a2-6)Gal(b1-4)GlcNAc(b1-3)Gal(b1-4)GlcNAc(b1-2)Man(a1-3)[Neu5Ac(a2-6)Gal(b1-4)GlcNAc(b1-3)Gal(b1-4)GlcNAc(b1-2)Man(a1-6)]GalNAc
Procedure, shortened: as §1

[16] = molecular target: Neu5Ac(a2-6)Gal(b1-4)GlcNAc(b1-3)Gal(b1-4)GlcNAc(b1-3)Gal(b1-4)GlcNAc
Procedure, shortened: as §1

[17] = molecular target: Neu5Ac(a2-6)Gal(b1-4)GlcNAc(b1-3)Gal(b1-4)GlcNAc(b1-3)Gal(b1-4)GlcNAc(b1-2)Man(a1-3)[Neu5Ac(a2-6)Gal(b1-4)GlcNAc(b1-3)Gal(b1-4)GlcNAc(b1-3)Gal(b1-4)GlcNAc(b1-2)Man(a1-6)]GalNAc
Procedure, shortened: as §1

[18] = molecular target: Neu5Ac(a2-6)Gal(b1-4)GlcNAc(b1-3)Gal(b1-4)GlcNAc(b1-3)GalNAc
Procedure, shortened: as §1

[19] = molecular target: Neu5Ac(a2-6)Gal(b1-4)GlcNAc(b1-3)Gal(b1-4)GlcNAc(b1-3)[Neu5Ac(a2-6)Gal(b1-4)GlcNAc(b1-3)Gal(b1-4)GlcNAc(b1-6)]GalNAc
Procedure, shortened: as §1

[20] = molecular target: Neu5Ac(a2-6)Gal(b1-4)GlcNAc(b1-3)Gal(b1-4)GlcNAc(b1-6)[Gal(b1-3)]GalNAc
Procedure, shortened: as §1

[21] = molecular target: Neu5Ac(a2-6)Gal(b1-4)GlcNAc(b1-3)Gal(b1-4)[Fuc(a1-3)]GlcNAc(b1-3)Gal(b1-4)[Fuc(a1-3)]GlcNAc
Procedure, shortened: as §1

[22] = molecular target: Neu5Ac(a2-6)Gal(b1-4)GlcNAc(b1-3)GalNAc
Procedure, shortened: as §1

[23] = molecular target: Neu5Ac(a2-6)Gal(b1-4)GlcNAc(b1-3)[Neu5Ac(a2-6)Gal(b1-4)GlcNAc(b1-6)]GalNAc
Procedure, shortened: as §1

[24] = molecular target: Neu5Ac(a2-6)Gal(b1-4)GlcNAc(b1-6)GalNAc
Procedure, shortened: as §1

[25] = molecular target: Neu5Ac(a2-6)Gal(b1-4)GlcNAc(b1-6)[Gal(b1-3)GlcNAc(b1-3)]Gal(b1-4)Glc
Procedure, shortened: as §1

[26] = molecular target: Neu5Ac(a2-6)Gal(b1-4)GlcNAc(b1-6)[Gal(b1-3)]GalNAc
Procedure, shortened: as §1

[27] = molecular target: Neu5Ac(a2-6)Gal(b1-4)GlcNAc6S
Procedure, shortened: as §1

[28] = molecular target: Neu5Ac(a2-6)GalNAc
Procedure, shortened: as §1

[29] = molecular target: Neu5Ac(a2-6)GalNAc(b1-4)GlcNAc
Procedure, shortened: as §1

[30] = molecular target: Neu5Ac(a2-6)GalNAc(b1-4)GlcNAc6S
Procedure, shortened: as §1

[31] = molecular target: Neu5Ac(a2-6)GlcNAc(b1-4)GlcNAc
Procedure, shortened: as §1

B1: CC1G-11630 (Coprinopsis cinerea), A8P462 (protein)
chain: MTTEAKIKLKAVVYWELVFDYDNSSNTGEITQSYTVKISQTSTRSTFASEVSTTTIDTLTKNNQEVDVGASYGAISANVSASWEHSEEVNNMLEKTTQTSTEDTYTVETEETRSYTIGPGGMLSLFQKHFSGPGMHVAFDVFTTDLELAKERTEIDIDVDVEAIRFVREIRVVYTDIMSEAPGDHVREINGKNPDINYGFNGKFVWLVPEQTRKTAQALTNVEFVSQAESDDRYWDLAAGAGGSNRYLIPVYDTNNKDKIYELALWRSDSYITHDKVKAAGWSGTTGDINSGRGGTYLNLVWKTRHAY
Which “glycan array binding signal (z-score)” value [1] does the source give for B1 here?
The value was 0.972.

And the “glycan array binding signal (z-score)” value [2]?
The value was -0.125.

What about the “glycan array binding signal (z-score)” value [3] of the same binder?
The value was -0.644.

What about the “glycan array binding signal (z-score)” value [4] of the same binder?
Its value is -0.625.

And the “glycan array binding signal (z-score)” value [5]?
The value was 0.186.

What about the “glycan array binding signal (z-score)” value [6] of the same binder?
Its value is -0.588.

What about the “glycan array binding signal (z-score)” value [7] of the same binder?
Its value is 15.9.

And the “glycan array binding signal (z-score)” value [8]?
The value was -0.308.

What about the “glycan array binding signal (z-score)” value [9] of the same binder?
The value was -0.622.

And the “glycan array binding signal (z-score)” value [10]?
The value was -0.325.

What about the “glycan array binding signal (z-score)” value [11] of the same binder?
The value was -0.402.

What about the “glycan array binding signal (z-score)” value [12] of the same binder?
The value was -0.523.

What about the “glycan array binding signal (z-score)” value [13] of the same binder?
Its value is -0.572.

What about the “glycan array binding signal (z-score)” value [14] of the same binder?
The value was -0.292.

And the “glycan array binding signal (z-score)” value [15]?
Its value is 0.056.

And the “glycan array binding signal (z-score)” value [16]?
The value was -0.463.

And the “glycan array binding signal (z-score)” value [17]?
The value was 2.1.

And the “glycan array binding signal (z-score)” value [18]?
Its value is -0.237.

And the “glycan array binding signal (z-score)” value [19]?
Its value is -0.124.

And the “glycan array binding signal (z-score)” value [20]?
Its value is 0.078.

And the “glycan array binding signal (z-score)” value [21]?
Its value is -0.27.

What about the “glycan array binding signal (z-score)” value [22] of the same binder?
Its value is 0.496.

And the “glycan array binding signal (z-score)” value [23]?
Its value is 0.001.

And the “glycan array binding signal (z-score)” value [24]?
The value was 2.18.

What about the “glycan array binding signal (z-score)” value [25] of the same binder?
Its value is -0.688.

What about the “glycan array binding signal (z-score)” value [26] of the same binder?
Its value is 0.527.

What about the “glycan array binding signal (z-score)” value [27] of the same binder?
Its value is -0.166.

What about the “glycan array binding signal (z-score)” value [28] of the same binder?
Its value is -0.508.

What about the “glycan array binding signal (z-score)” value [29] of the same binder?
The value was -0.502.

And the “glycan array binding signal (z-score)” value [30]?
The value was 0.523.

What about the “glycan array binding signal (z-score)” value [31] of the same binder?
The value was -0.717.
